Molecules are shown by their SMILES. “And” between values parts separate entries of the source, which are not always exact repeats. Equal values may be shown once. Where a name gives a salt, the structure may show the parent alone. In all, about 16,000 compounds went through this assay and about 40 (0.2%) were called active. About 1% were inconclusive and are not listed. Calls come from the whole dose curve; as a rule, active = well fitted activation curve with a large enough effect; inconclusive = small, poorly fitted or top-dose-only effect, or another doubt; inactive = no such curve, though single readings can be large or run the other way. This is one part of the list. Residues, ends and D or L forms follow the SMILES beside them. *: point of attachment. Tfa = O=C(C(F)(F)F)*
% is set by controls: 0 for no effect and ±100 for the full control effect.

This assay addresses Rap guanine nucleotide exchange factor 4 (Homo sapiens) (UniProt Q8WZA2). Description: Validation qHTS for agonist of cAMP-regulated guanine nucleotide exchange factor 4 (EPAC2).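 Note: exchange makes BODIPY-GDP fluorescence drop when released from Rap1B; series mostly up to about 150 µM.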 Conditions: EPAC2 Rap1B BODIPY-GDP exchange, fluorescence; activation: stronger effect = higher value. The essentials: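 Fluorescent exchange assay: 100 nM EPAC2 with 250 nM RAP1B-BODIPY-GDP and 50 uM GDP; compound added, 5 min at room temperature, then read (ex 480/em 540 nm) every 5 min for 30 min. Normalized to 6.5 mM cAMP agonist control.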
UniProt Q8WZA2, sequence (Q8WZA2 whole entry, looked up): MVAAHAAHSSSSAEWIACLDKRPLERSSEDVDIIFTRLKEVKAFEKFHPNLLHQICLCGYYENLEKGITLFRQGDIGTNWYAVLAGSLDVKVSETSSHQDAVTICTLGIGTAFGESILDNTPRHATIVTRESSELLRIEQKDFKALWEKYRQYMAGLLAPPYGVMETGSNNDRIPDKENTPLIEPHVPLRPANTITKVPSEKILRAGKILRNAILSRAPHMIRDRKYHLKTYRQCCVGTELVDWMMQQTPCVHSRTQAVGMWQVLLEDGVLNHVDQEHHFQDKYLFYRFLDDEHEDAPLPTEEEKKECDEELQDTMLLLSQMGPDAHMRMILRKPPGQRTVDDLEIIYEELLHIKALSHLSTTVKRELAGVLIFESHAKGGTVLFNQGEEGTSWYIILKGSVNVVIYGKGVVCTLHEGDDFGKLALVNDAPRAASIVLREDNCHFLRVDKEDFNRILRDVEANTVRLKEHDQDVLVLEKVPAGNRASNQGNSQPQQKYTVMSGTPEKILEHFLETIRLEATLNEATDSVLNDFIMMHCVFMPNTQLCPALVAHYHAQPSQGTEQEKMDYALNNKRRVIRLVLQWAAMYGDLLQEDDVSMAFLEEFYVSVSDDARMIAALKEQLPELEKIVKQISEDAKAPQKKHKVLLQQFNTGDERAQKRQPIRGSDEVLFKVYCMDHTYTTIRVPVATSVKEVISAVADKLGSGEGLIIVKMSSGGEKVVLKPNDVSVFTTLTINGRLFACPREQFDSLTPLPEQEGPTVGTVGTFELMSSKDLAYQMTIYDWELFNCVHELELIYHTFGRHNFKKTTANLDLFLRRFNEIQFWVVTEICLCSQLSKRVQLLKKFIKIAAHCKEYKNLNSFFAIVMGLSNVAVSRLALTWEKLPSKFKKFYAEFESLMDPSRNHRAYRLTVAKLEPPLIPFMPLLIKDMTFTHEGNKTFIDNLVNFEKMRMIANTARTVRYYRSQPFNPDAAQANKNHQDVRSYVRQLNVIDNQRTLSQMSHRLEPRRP
With `CC(C)C(NC(=O)C(Cc1ccc(O)cc1)NC(=O)C(NC(=O)C(F)(F)F)C(C)C)C(=O)O` (stereo not drawn) (Tfa-Val-Tyr-Val-OH; configuration not given here), the activation is inactive: -7.05%.

In the case of `CC(C)c1nc(CN(C)C(=O)N[C@H](C(=O)N[C@@H](Cc2ccccc2)C[C@H](O)[C@H](Cc2ccccc2)NC(=O)OCc2cncs2)C(C)C)cs1`, the activation was inactive: 6.47% and inactive: -60.3%.

For `COc1cc2c(cc1OC)-c1cc3nc4ccccc4nc3n1C(C)(C)C2`, the activation was inactive: -11.9%.

`CCCOC(=O)c1c(-c2ccccc2)nc(CC)c(C(=O)SCC)c1CCC`: the activation is inactive: -30.1%.

Regarding `COc1ccccc1OCCNCC(O)COc1cccc2[nH]c3ccccc3c12` (stereo unspecified), the activation was inactive: -14.5% and inactive: -10.6%.

Turning to `COc1ccc(CNc2nc(-c3ccccc3CN(C)C)nc3ccccc23)c(OC)c1`, the activation was inactive: 7.2%.

On to `CC1C(=O)CC2C3(C)CCC2(C(C)C(=O)O)C(=O)C13` (stereo unspecified), for which the activation is inactive: -5.93%.

Consider `CN1CCN(c2nc(-c3cccc(C#N)c3)nc3ccccc23)CC1`, for which the activation is inactive: -22.7%.

Turning to `CC(C)=CCc1c(O)cc2occ(-c3ccc4c(c3)OCO4)c(=O)c2c1O`, the activation is inactive: 8.54%.

Turning to `O=S(=O)(c1ccccc1)N1CCC[C@@]2(CCN(c3ncccn3)C2)C1`, the activation was inactive: -15.5%.

With `NC(CCC(=O)NCS(=O)(=O)O)C(=O)O` (stereo unspecified), the activation is inactive: 3.53%.

Consider `N[C@@H](C(=O)O)c1ccc(O)c(C(=O)O)c1`, for which the activation is inactive: -3.77%.

In the case of `Cc1cc(CC(C)CC(C)(C)C)n(O)c(=O)c1` (stereo unspecified) (tested in a mixture with another compound), the activation is inactive: -34%.

On to `OC1(c2cccnc2)CCN(Cc2ccc3c(c2)CN(Cc2cc4ccccc4s2)CCO3)CC1`, for which the activation was inactive: -11.4%.

As to `COc1ncc2nc(C)c(=O)n(-c3ccccc3)c2n1`, the activation is inactive: -4.73%.

In the case of `C1=C/C(=C2/C=Cc3ccccc32)c2ccccc2N1`, the activation is inactive: -2.61%.

As to `CCn1cc(C(=O)O)c(=O)c2cc(F)c(N3CCNCC3)cc21`, the activation is inactive: 12.2% and inactive: -2.65% and inactive: -20.6%.

Consider `C=C1C(=O)OC2C[C@@]3(C)CCCC(=C)[C@@H]3CC12` (stereo partly specified), for which the activation is inactive: 2.93%.

As to `CC(C)C[C@@H](CO)N1CCN(CC(C)C)CCC1=O`, the activation is inactive: -2.03% and inactive: -23.9%.

`Cc1cc2c(cc1C)NC1(C[C@H]3CCC(=O)N4CC[C@@H](C1)[C@@H]34)C(=NC(C)(C)CC(C)(C)C)N2` (stereo partly specified): the activation is inactive: -16.6%.

With `Cc1ccccc1-c1nccc(Nc2ccc(F)cc2)n1`, the activation was inactive: -31%.

Source of the values: PubChem BioAssay AID1645887 (National Center for Advancing Translational Sciences (NCATS), 2021).
